According to PubChem BioAssay AID504444 (National Center for Advancing Translational Sciences (NCATS), 2011):
Several values for one entry are separate records, joined by “and”; a condition that tells them apart may be missing. Equal entries are not always repeated. Out of some 360,000 compounds screened, about 7,500 (2.1%) were called active. Inconclusive results (about 20%) are left out. Calls follow the shape of the dose curve; as a rule, active = well fitted inhibition curve with a large enough effect; inconclusive = small, poorly fitted or top-dose-only effect, or effect the other way; inactive = flat fitted curve, though single readings scatter. The list shows a part of the results, in another mix than the full data. More than one record can exist for a structure, and the calls need not agree.

Experiment: Nrf2 qHTS screen for inhibitors; also: nearly all actives have a fitted effect of over 60% in size
Conditions: A549 ARE-Fluc reporter, luciferase luminescence, 18-24 h; series mostly up to 46 µM; activity change, negative = inhibition: at the top concentration
Method in brief: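 Cells were seeded and rested 2 h, then exposed to compounds for 18-24 h. CellTiter-Fluor was read first as a viability measure. BugLite was added 15 min before the final luminescent read of ARE-luciferase activity in A549 cells.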
% is scaled to controls: 0 for no effect and ±100 for the full control effect; potency is read from the fitted curve at half-maximal effect.

| Structure (SMILES) | activity change, negative = inhibition | Potency |
| --- | --- | --- |
| CCC(CC)C(=O)Nc1nnc(S(=O)(=O)N2CCCCCC2)s1 | inactive: 8.33% | – |
| CCCN(CCC)C(=O)c1cc2c(=O)n3cccc(C)c3nc2s1 | inactive: 10.7% | – |
| C[C@@H]1C[C@H](Nc2ccccc2)c2ccccc2N1C(=O)c1cccnc1 | inactive: 0.249% | – |
| O=C(NNC(=O)c1cccc(S(=O)(=O)N2CCc3ccccc32)c1)c1ccccc1 | – | active: 8.2 µM |
| CCCOc1ccccc1C1NC(=O)NC(C)=C1C(=O)OCc1ccccc1 (stereo not drawn) | – | active: 10.3 µM |
| CCOC(=O)[C@H](CCc1ccccc1)N[C@@H](C)C(=O)N1CCCC1C(=O)O (stereo partly drawn) | inactive: 0.63% | – |
| Cc1ccc(-n2nc3c(=O)n(CCCC(=O)NCCc4ccccc4)nc(C)c3c2C)cc1 | inactive: 4.51% | – |
| Cc1cccc(CCNC(=O)CCS(=O)(=O)c2cc3c(cc2Cl)NC(=O)CO3)c1 | inactive: -20.4% | – |
| Cc1cccc(-n2cnc3cc(C(=O)N4CCCCC4)ccc32)c1 | inactive: 23.5% | – |
| COC(=O)/C=C1/SC(=Nc2ccc(Cl)c(Cl)c2)NC1=O | inactive: -11.1% | – |
| Cc1ccc(-c2cc([C@H]3[C@H]4C=CC[C@@H](C)[C@@H]4C(=O)N3Cc3ccccc3)ccc2F)cc1 | inactive: -10.1% | – |
| NC1=NC[C@@H](Cc2ccc(O)cc2)N1CCCCC1CCCCC1 | inactive: 25.7% | – |
| O=C(NCc1nc2ccccc2[nH]1)C1=C[C@@H](c2csc3ccccc23)C[C@@H](OCc2ccc(CO)cc2)O1 | inactive: 4.52% | – |
| O=C(Nc1ccccc1N1CCCC1)c1ccc([N+](=O)[O-])o1 | – | active: 16.4 µM |
| COc1ccc(CCNC(=O)c2ccc3c(c2)N(Cc2ccc(C)cc2)CCS3)cc1OC | inactive: 2.54% | – |
| Cc1cn([C@H]2C=C[C@@H](CO)O2)c(=O)[nH]c1=O | inactive: -0.974% | – |
| CCC(=O)Nc1cccc(C(=O)/C=C/c2ccc(F)cc2)c1 | – | active: 23.1 µM |
| C=CCC[C@@H](Cc1ccc(F)cc1)C(=O)OC[C@@H]1CCCN1C(=O)[C@H](CC=C)CC(=O)N[C@H](CO)Cc1ccccc1 | inactive: -26.1% | – |
| C/C(=N\Nc1ccc(C(=O)O)cc1)c1ccc2c(c1)Nc1ccccc1S2 | inactive: 17.4% | – |
| O=C(Nc1nc(-c2ccccc2)cs1)c1ccccc1NS(=O)(=O)c1ccc(F)cc1 | – | active: 6.51 µM |
| CN1C(C(=O)Nc2ccc(F)cc2F)=CC(c2ccco2)=NS1(=O)=O | inactive: -11.3% | – |
| Cc1cccn2c(=O)c(C(=O)NCCCN3CCCCC3C)c(O)nc12 (stereo not drawn) | inactive: 4.13% | – |
| O=C(Cn1c(=O)c2cccn2c2ccccc21)Nc1cc(F)ccc1F | inactive: -0.0475% | – |
| O=C(c1ccc2c(c1)N(Cc1ccc(F)cc1)C(=O)c1ccccc1S2=O)N1CCC(Cc2ccccc2)CC1 (stereo not drawn) | – | active: 23.1 µM |

| Structure (SMILES) | activity change, negative = inhibition | Potency |
| --- | --- | --- |
| O=C(Nc1nnc(S(=O)(=O)Nc2ccccc2)s1)C1CCCCC1 | inactive: -23.6% | – |
| O=C(O)C1=C[C@@H](c2ccc(C(F)(F)F)cc2)C[C@@H](OCc2ccc(CO)cc2)O1 | inactive: 7.98% | – |
| Cc1nc2nc(CSc3nnc(C)s3)cc(=O)n2[nH]1 | inactive: -6.32% | – |
| O=[N+]([O-])c1ccc(Cl)c(C[n+]2cccc3ccccc32)c1 | – | active: 11.6 µM |
| CCC(=O)NC(c1ccco1)c1cc(Cl)c2cccnc2c1O (stereo not drawn) | inactive: -4.27% | – |
| O=C(c1ccc2c(=O)n(CCc3ccccc3)c(=O)[nH]c2c1)N1CCN(c2ccc(F)cc2)CC1 | inactive: -8.7% [at 9.27 µM] | – |
| CC(=C\C(=O)O)/C(=C/c1ccccc1)C(=O)O | inactive: -13.3% | – |
| CN1C(=O)Cc2cc(S(=O)(=O)N3CCN(c4ccccc4F)CC3)ccc21 | inactive: 12.9% | – |
| O=S(=O)(c1ccc(SCCOc2ccc(Br)cc2)nc1)N1CCCC1 | – | active: 16.4 µM |
| Cc1ccccc1C(=O)c1cccn1CC(=O)NCc1ccccc1 | inactive: 0.903% | – |
| COc1ccc(NC(=O)CSc2nc3ccccc3nc2N2CCOCC2)c(OC)c1 | inactive: -9.71% | – |
| COc1ccc(CN=C(N)N=C(N)N)cc1Cl | – | active: 16.4 µM |
| COc1cc(C(=O)Nc2ccc3nc4n(c(=O)c3c2)CCCCC4)cc(OC)c1OC | inactive: 5.77% | – |
| CCc1ccc(NC(=O)Cn2c(=O)c3cccn3c3ccccc32)cc1 | inactive: 18.1% | – |
| Cc1cccc(NC(=O)CCn2cnnn2)c1 | inactive: 0.916% | – |
| CCN(CC)C(=O)Cn1c(=O)n(-c2ccccc2)c(=O)c2c3c(sc21)CCC3 | inactive: -2.91% | – |
| O=C(N/C(=C/c1ccc(Br)cc1)C(=O)N1CCCC1)c1cccs1 | inactive: 3.09% | – |
| Cc1cc(-c2ccccc2)cc(-c2ccccc2)[n+]1C | – | active: 11.6 µM |
| CCN1C(=O)[C@@H]2[C@@H](c3ccc(-c4cccc(Cl)c4)c(OC)c3)N3CCCC[C@@]3(C(=O)OC)[C@@H]2C1=O | inactive: -17.1% | – |
| C=CC[C@@H](CC(=O)N[C@H](CO)Cc1ccccc1)C(=O)N[C@@H](COC(=O)[C@@H](CC=C)CC(=O)OC(C)(C)C)Cc1ccccc1 | inactive: -14.6% | – |
| CCOc1ccc(CCNC(=O)CS(=O)(=O)Cc2nc(-c3ccc(OC)cc3)oc2C)cc1 | inactive: -16.5% | – |
| CCOc1ccc(NC(=O)c2sc3nc4n(c(=O)c3c2C)CCC4)cc1 | inactive: 1.36% | – |
| CCCCN(CC)CCNC(=O)C1CCN(S(=O)(=O)c2cccc3nsnc23)CC1 | inactive: 10.2% | – |
| N[C@@H](Cc1cc(I)c(Oc2ccc(O)c(I)c2)c(I)c1)C(=O)O | inactive: -3.97% | – |

| Structure (SMILES) | activity change, negative = inhibition | Potency |
| --- | --- | --- |
| O=C(Nc1ccc(C(F)(F)F)cc1)c1csc(-c2ccncc2)n1 | – | active: 18.4 µM |
| CC(=O)c1ccc(N2CCN(c3ccc4cc(S(=O)(=O)N5CCC(C)CC5)ccc4n3)CC2)cc1 | inactive: 7.24% | – |
| Cc1ccc(CNC(=O)Cn2cccc2C(=O)c2ccccc2C)cc1 | inactive: 15.1% | – |
| CCC1CN(C(=O)NCc2ccc(C)cc2)c2cc(C)ccc2O1 (stereo not drawn) | inactive: -20.9% | – |
| Cc1cccc(C(=O)Nc2ccc(O)c3c(=O)cc(-c4ccccc4Cl)oc23)c1 | inactive: -26.6% | – |
| COc1ccccc1NC(=O)CN(C)S(=O)(=O)c1cccc2cccnc12 | inactive: -0.0194% | – |
| Cc1ccc(CNC(=O)CCc2c(C)nn(-c3ccc(N4CCOCC4)nn3)c2C)cc1 | inactive: 6.51% | – |
| CC(=O)N1c2ccc(S(=O)(=O)NCc3ccccc3Cl)cc2CC1C (stereo not drawn) | inactive: -15.1% | – |
| COc1ccc(C)cc1NC(=O)c1cc(S(=O)(=O)N2CCOCC2)cn1C | inactive: -13.6% | – |
| CC(=C/c1ccccc1)/C=N/NC(=O)c1cc(C)oc1C | inactive: 10.1% | – |
| Cn1c(SCC(=O)N/N=C/C=C\c2ccccc2[N+](=O)[O-])nc2ccccc21 | inactive: 18.7% | – |
| Cn1cc(C(=O)N/N=C/C(Br)=C/c2ccccc2)ccc1=O | inactive: 16.3% | – |
| Oc1ccc(COc2ccccc2Cl)c2cccnc12 | – | active: 18.4 µM |
| CCc1cc[n+](C(C(=S)Nc2cccc(C)c2)=C([O-])c2ccc(C)c([N+](=O)[O-])c2)cc1 | inactive: 7.59% | – |
| COc1cccc(NS(=O)(=O)c2ccc3c(c2)[C@H]2C=CC[C@H]2[C@@H](c2ccccc2Cl)N3)c1 | – | active: 20.6 µM |
| Cc1ccccc1NS(=O)(=O)c1nnc(NC(=O)c2ccc(Cl)cc2)s1 | inactive: 5.14% | – |
| CC(C)(C)c1ccc(C2CC2C(=O)N/N=C\c2ccc[nH]2)cc1 (stereo not drawn) | – | active: 1.64 µM |
| COc1ccc(C(=O)Nc2ccc(S(=O)(=O)Nc3cc(C)nc(C)n3)cc2)cc1 | inactive: 8.6% | – |
| OCC[C@H]1C[C@@H](O)[C@H](O)[C@]2(Cc3ccccc3CO2)O1 | inactive: 3.74% | – |
| O=C(c1cc(COc2cccc(C(F)(F)F)c2)on1)N1CCC(c2ccncc2)CC1 | – | active: 13 µM |
| COC(=O)[C@@]12CCCCN1[C@H](c1ccc(SC3CCCCC3)cc1)[C@H]1C(=O)N(C)C(=O)[C@H]12 | inactive: -17.8% | – |
| Nc1nc(=S)c2ncn(C3OC(CO)C(O)C3O)c2[nH]1 (stereo not drawn) | inactive: -7.75% | – |
| CCC(Oc1ccccc1)C(=O)Nc1nnc(S(=O)(=O)Nc2ccccc2)s1 (stereo not drawn) | inactive: -13.1% | – |
| COCCNC(=O)CCC(=O)NNc1nc2ccccc2c2nc(-c3ccccc3)nn12 | inactive: -9.82% | – |

| Structure (SMILES) | activity change, negative = inhibition | Potency |
| --- | --- | --- |
| C[C@@H](C(=O)NCCc1c[nH]c2ccccc12)[C@@H]1C[C@@]1(C)[C@@H](NC(=O)OCc1ccccc1)c1ccccc1 | inactive: -25% | – |
| COc1ccc(C2/C=C\CN(C(=O)OCc3ccccc3)CC(=O)N2Cc2ccc(F)cc2)cc1 (stereo not drawn) | inactive: -12.8% | – |
| Cc1ccc(-n2c(O)c(/C=N/n3cnnc3)c3ccccc3c2=O)cc1 | inactive: -29.9% | – |
| Nc1ncnc2c1C(c1ccccc1)c1c(ccc3ccccc13)O2 (stereo not drawn) | – | inactive and active: 18.4 µM |
| CC(C)CCNC(=O)CCC(=O)NNc1nc2ccccc2c2nc(-c3ccccc3)nn12 | inactive: -12.7% | – |
| Cc1ccc(-n2c(=O)c3ccc(C(=O)NCc4ccco4)cc3n(Cc3ccccc3C#N)c2=O)cc1 | inactive: 7.3% | – |
| S=C(NC1CC2CCC1C2)N1CCN(c2cccc(Cl)c2)CC1 (stereo not drawn) | – | active: 16.4 µM |
| CC(C)(C)OC(=O)NCCCCCNC(=O)c1nc[nH]c1C(=O)NCCCCCNC(=O)OC(C)(C)C | – | active: 13 µM |
| CCOC(=O)C1=CC[C@H]2c3c(c4ccccc4n3C)C(=O)C1N2C(=O)OC(C)(C)C | inactive: -11.6% | – |
| CC(C)CC(=O)Nc1nnc(S(=O)(=O)N2CCCCCC2)s1 | inactive: 20.2% | – |
| C=CC[C@H](CC(=O)N(CCO)Cc1ccccc1)C(=O)N[C@H](C)COC(=O)[C@@H](CC=C)Cc1ccc(F)cc1 | inactive: -25.3% | – |
| COc1ccc(-c2cc(C)no2)cc1S(=O)(=O)N1CCN(c2cccc(C)c2)C(C)C1 (stereo not drawn) | inactive: 0.271% | – |
| CCc1ccc(NC(=O)CSc2nc3nc(C)cc(C)n3n2)cc1 | inactive: -27.9% | – |
| COc1ccc2cc(CN(CCO)C(=O)c3ccc(Br)cc3)c(=O)[nH]c2c1 | – | active: 20.6 µM |
| CCOc1ccccc1NC(=O)c1nc(S(=O)(=O)Cc2cccc(C)c2)ncc1Cl | inactive: 13.1% | – |
| CC(=O)c1ccccc1OCc1ccc(S(=O)(=O)Cc2ccccc2)cc1 | – | active: 20.6 µM |
| CCOC(=O)/C=C1/SCC(=O)N1CC(=O)Nc1ccc2c(c1)CCC2 | inactive: 3.06% | – |
| COc1ccc(C)cc1NC(=O)CN1C(=O)COc2ccc(S(=O)(=O)N3CCC(C)CC3)cc21 | inactive: 7.49% | – |
| CC(C)(C)OC(=O)N[C@H](Cc1ccccc1)C(=O)N1CCC(C(=O)O)CC1 | inactive: -4.16% | – |
| COc1cccc(CNc2ccc3c(c2)ncn3C)c1OC | inactive: 0.813% | – |
| Cc1ccccc1NC(=O)/C(C#N)=C/c1ccsc1 | inactive: 6.99% | – |
